Test [1] has as its target T1, Human γC ECD (human, UniProt P31785 23-262, biotinylated (site not stated)).
T1 construct: extracellular domain; Biotinylated and held on a streptavidin chip for SPR; also called common gamma; biotinylated human γC ECD
T1 sequence (looked up): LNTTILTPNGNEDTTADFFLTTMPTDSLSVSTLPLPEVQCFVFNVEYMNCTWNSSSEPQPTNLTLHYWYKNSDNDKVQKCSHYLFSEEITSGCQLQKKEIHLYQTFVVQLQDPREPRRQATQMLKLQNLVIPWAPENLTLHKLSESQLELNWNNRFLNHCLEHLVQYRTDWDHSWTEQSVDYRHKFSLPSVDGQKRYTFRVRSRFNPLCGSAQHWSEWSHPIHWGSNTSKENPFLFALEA
Put plainly: drawn table of affinities; the scFv value is derived from patent US20160367664A1 (Wang et al., 2016), not measured in this filing.

The target of test [2] is T2, IL-2Rβ/IL-10Rβ heterodimer on cells (human, UniProt P14784 27-551; Q08334 20-325).
T2 sequence (looked up) 1: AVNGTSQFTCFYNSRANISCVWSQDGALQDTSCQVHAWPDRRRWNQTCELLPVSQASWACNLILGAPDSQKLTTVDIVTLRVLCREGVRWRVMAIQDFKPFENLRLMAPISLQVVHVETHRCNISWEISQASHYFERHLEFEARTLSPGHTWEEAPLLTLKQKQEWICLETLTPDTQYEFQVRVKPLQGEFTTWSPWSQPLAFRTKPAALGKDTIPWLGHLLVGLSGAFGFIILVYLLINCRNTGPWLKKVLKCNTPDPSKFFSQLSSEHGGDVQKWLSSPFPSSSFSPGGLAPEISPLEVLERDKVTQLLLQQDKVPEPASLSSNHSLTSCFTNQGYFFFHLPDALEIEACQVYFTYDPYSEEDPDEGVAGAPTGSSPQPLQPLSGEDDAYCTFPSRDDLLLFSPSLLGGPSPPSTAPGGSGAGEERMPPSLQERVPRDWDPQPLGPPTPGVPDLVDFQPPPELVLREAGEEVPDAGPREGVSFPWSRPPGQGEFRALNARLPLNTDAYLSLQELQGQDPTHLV
T2 sequence (looked up) 2: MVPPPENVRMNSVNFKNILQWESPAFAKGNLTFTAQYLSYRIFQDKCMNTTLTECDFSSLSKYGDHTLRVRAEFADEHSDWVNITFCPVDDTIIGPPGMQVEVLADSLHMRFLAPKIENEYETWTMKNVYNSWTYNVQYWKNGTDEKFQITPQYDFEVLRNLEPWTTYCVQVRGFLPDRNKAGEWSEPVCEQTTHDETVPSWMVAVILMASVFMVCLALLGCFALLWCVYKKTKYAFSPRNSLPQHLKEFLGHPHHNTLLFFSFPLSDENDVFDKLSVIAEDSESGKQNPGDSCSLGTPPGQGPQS
Briefly: cell-based or functional assay.

We go through two molecules from patent US20250129169A1 (Stanford University, published 2025).

B1: γ scFv1 (P1A3) (scFv)
scFv (VH-linker-VL): QVQLQQWGAGLLKPSETLSLTCAVYGGSFSGYYWSWIRQPPGKGLEWIGEINHSGSTNYNPSLKSRATISVDTSKNQFSLKLSSVTAADTAVYYCATSPGGYSGGYFQHWGQGTLVTVSSGGGGSGGGGSGGGGS[skipping about 100 residues]YCMQGTHWPWTFGQGTKVEIK
notes: also called γc-scFv1 (P1A3)
In test [1], B1 yielded an equilibrium dissociation constant (Kd) of 145 nM.

B2: 10Rβ-VHH1 2Rβ-VHH6-Fc (0 a.a.) (Fc fusion)
chain: QVQLQESGGGSVQAGGSLRLSCAARYTYSTYCMGWFRQAPGKEREGVAAIDSDGSTSYADSVKGRFTISKDNAKNTLYLQMNSLKPEDTAMYYCASDADCDLGGSWSTRGQGTQVTVSSQVQLQESGGGSVQAGGSLRLSCAASSYTISSVCMGWFRQAPGKEREGVAGIAPDGSTGYGDSVKGRFTISKDNAKNTLYLQMNSLKPEDTAMYYCAAASPGRCFLPRTALEPALYYNWGQGTQVTVSS[skipping human IgG1 Fc]
Consider B2, for which the “pSTAT5 Emax in human primary T cells, relative to monomeric 10Rβ1-2Rβ6” value in test [2] is > 2 fold.

Usually Kd stands for a measure of binding affinity in units of concentration.
